In the supplement of paper PMC11876631:
± gives the standard deviation of the averaged measurements. Laboratory Escherichia coli strains with one amino-acid change in an essential protein, pooled on minimal glucose agar with carbenicillin or gentamicin at twice the control MIC (plus kanamycin and chloramphenicol for the plasmids), 48 h. Fold change of barcode share against drug-free plates; higher = less susceptible. Active = above 20 in both replicates (the paper's putatively resistant). '<' = one read or none on drug, '>' = one read or none on a drug-free plate. Shares are relative, so most strains fall below 1 when a few take over. Listed are strains with at least 15 reads on both drug-free plates, and hits; most hits rest on fewer reference reads. Replicate rank correlation about 0.5. Edits are read from barcodes.

B1: murA L313A (protein)
chain: MDKFRVQGPTKLQGEVTISGAKNAALPILFAALLAEEPVEIQNVPKLKDVDTSMKLLSQLGAKVERNGSVHIDARDVNVFCAPYDLVKTMRASIWALGPLVARFGQGQVSLPGGCTIGARPVDLHISGLEQLGATIKLEEGYVKASVDGRLKGAHIVMDKVSVGATVTIMCAATLAEGTTIIENAAREPEIVDTANFLITLGAKISGQGTDRIVIEGVERLGGGVYRVLPDRIETGTFLVAAAISRGKIICRNAQPDTLDAVLAKLRDAGADIEVGEDWISLDMHGKRPKAVNVRTAPHPAFPTDMQAQFTLANLVAEGTGFITETVFENRFMHVPELSRMGAHAEIESNTVICHGVEKLSGAQVMATDLRASASLVLAGCIAEGTTVVDRIYHIDRGYERIEDKLRALGANIERVKGE
B2: murA L313Q (protein)
chain: MDKFRVQGPTKLQGEVTISGAKNAALPILFAALLAEEPVEIQNVPKLKDVDTSMKLLSQLGAKVERNGSVHIDARDVNVFCAPYDLVKTMRASIWALGPLVARFGQGQVSLPGGCTIGARPVDLHISGLEQLGATIKLEEGYVKASVDGRLKGAHIVMDKVSVGATVTIMCAATLAEGTTIIENAAREPEIVDTANFLITLGAKISGQGTDRIVIEGVERLGGGVYRVLPDRIETGTFLVAAAISRGKIICRNAQPDTLDAVLAKLRDAGADIEVGEDWISLDMHGKRPKAVNVRTAPHPAFPTDMQAQFTLQNLVAEGTGFITETVFENRFMHVPELSRMGAHAEIESNTVICHGVEKLSGAQVMATDLRASASLVLAGCIAEGTTVVDRIYHIDRGYERIEDKLRALGANIERVKGE
B3: murA W95Q (protein)
chain: MDKFRVQGPTKLQGEVTISGAKNAALPILFAALLAEEPVEIQNVPKLKDVDTSMKLLSQLGAKVERNGSVHIDARDVNVFCAPYDLVKTMRASIQALGPLVARFGQGQVSLPGGCTIGARPVDLHISGLEQLGATIKLEEGYVKASVDGRLKGAHIVMDKVSVGATVTIMCAATLAEGTTIIENAAREPEIVDTANFLITLGAKISGQGTDRIVIEGVERLGGGVYRVLPDRIETGTFLVAAAISRGKIICRNAQPDTLDAVLAKLRDAGADIEVGEDWISLDMHGKRPKAVNVRTAPHPAFPTDMQAQFTLLNLVAEGTGFITETVFENRFMHVPELSRMGAHAEIESNTVICHGVEKLSGAQVMATDLRASASLVLAGCIAEGTTVVDRIYHIDRGYERIEDKLRALGANIERVKGE
B4: murB F54A (protein)
chain: MNHSLKPWNTFGIDHNAQHIVCAEDEQQLLNAWQYATAEGQPVLILGEGSNVLALEDYRGTVIINRIKGIEIHDEPDAWYLHVGAGENWHRLVKYTLQEGMPGLENLALIPGCVGSSPIQNIGAYGVELQRVCAYVDSVELATGKQVRLTAKECRFGYRDSIFKHEYQDRFAIVAVGLRLPKEWQPVLTYGDLTRLDPTTVTPQQVFNAVCHMRTTKLPDPKVNGNAGSFFKNPVVSAETAKALLSQFPTAPNYPQADGSVKLAAGWLIDQCQLKGMQIGGAAVHRQQALVLINEDNAKSEDVVQLAHHVRQKVGEKFNVWLEPEVRFIGASGEVSAVETIS
B5: murB F54P (protein)
chain: MNHSLKPWNTFGIDHNAQHIVCAEDEQQLLNAWQYATAEGQPVLILGEGSNVLPLEDYRGTVIINRIKGIEIHDEPDAWYLHVGAGENWHRLVKYTLQEGMPGLENLALIPGCVGSSPIQNIGAYGVELQRVCAYVDSVELATGKQVRLTAKECRFGYRDSIFKHEYQDRFAIVAVGLRLPKEWQPVLTYGDLTRLDPTTVTPQQVFNAVCHMRTTKLPDPKVNGNAGSFFKNPVVSAETAKALLSQFPTAPNYPQADGSVKLAAGWLIDQCQLKGMQIGGAAVHRQQALVLINEDNAKSEDVVQLAHHVRQKVGEKFNVWLEPEVRFIGASGEVSAVETIS
B6: murB F54Q (protein)
chain: MNHSLKPWNTFGIDHNAQHIVCAEDEQQLLNAWQYATAEGQPVLILGEGSNVLQLEDYRGTVIINRIKGIEIHDEPDAWYLHVGAGENWHRLVKYTLQEGMPGLENLALIPGCVGSSPIQNIGAYGVELQRVCAYVDSVELATGKQVRLTAKECRFGYRDSIFKHEYQDRFAIVAVGLRLPKEWQPVLTYGDLTRLDPTTVTPQQVFNAVCHMRTTKLPDPKVNGNAGSFFKNPVVSAETAKALLSQFPTAPNYPQADGSVKLAAGWLIDQCQLKGMQIGGAAVHRQQALVLINEDNAKSEDVVQLAHHVRQKVGEKFNVWLEPEVRFIGASGEVSAVETIS
B7: murB V284A (protein)
chain: MNHSLKPWNTFGIDHNAQHIVCAEDEQQLLNAWQYATAEGQPVLILGEGSNVLFLEDYRGTVIINRIKGIEIHDEPDAWYLHVGAGENWHRLVKYTLQEGMPGLENLALIPGCVGSSPIQNIGAYGVELQRVCAYVDSVELATGKQVRLTAKECRFGYRDSIFKHEYQDRFAIVAVGLRLPKEWQPVLTYGDLTRLDPTTVTPQQVFNAVCHMRTTKLPDPKVNGNAGSFFKNPVVSAETAKALLSQFPTAPNYPQADGSVKLAAGWLIDQCQLKGMQIGGAAAHRQQALVLINEDNAKSEDVVQLAHHVRQKVGEKFNVWLEPEVRFIGASGEVSAVETIS
B8: murB V210A (protein)
chain: MNHSLKPWNTFGIDHNAQHIVCAEDEQQLLNAWQYATAEGQPVLILGEGSNVLFLEDYRGTVIINRIKGIEIHDEPDAWYLHVGAGENWHRLVKYTLQEGMPGLENLALIPGCVGSSPIQNIGAYGVELQRVCAYVDSVELATGKQVRLTAKECRFGYRDSIFKHEYQDRFAIVAVGLRLPKEWQPVLTYGDLTRLDPTTVTPQQVFNAACHMRTTKLPDPKVNGNAGSFFKNPVVSAETAKALLSQFPTAPNYPQADGSVKLAAGWLIDQCQLKGMQIGGAAVHRQQALVLINEDNAKSEDVVQLAHHVRQKVGEKFNVWLEPEVRFIGASGEVSAVETIS
B9: murB I63A (protein)
chain: MNHSLKPWNTFGIDHNAQHIVCAEDEQQLLNAWQYATAEGQPVLILGEGSNVLFLEDYRGTVAINRIKGIEIHDEPDAWYLHVGAGENWHRLVKYTLQEGMPGLENLALIPGCVGSSPIQNIGAYGVELQRVCAYVDSVELATGKQVRLTAKECRFGYRDSIFKHEYQDRFAIVAVGLRLPKEWQPVLTYGDLTRLDPTTVTPQQVFNAVCHMRTTKLPDPKVNGNAGSFFKNPVVSAETAKALLSQFPTAPNYPQADGSVKLAAGWLIDQCQLKGMQIGGAAVHRQQALVLINEDNAKSEDVVQLAHHVRQKVGEKFNVWLEPEVRFIGASGEVSAVETIS
B10: murC L318A (protein)
chain: MNTQQLAKLRSIVPEMRRVRHIHFVGIGGAGMGGIAEVLANEGYQISGSDLAPNPVTQQLMNLGATIYFNHRPENVRDASVVVVSSAISADNPEIVAAHEARIPVIRRAEMLAELMRFRHGIAIAGTHGKTTTTAMVSSIYAEAGLDPTFVNGGLVKAAGVHARLGHGRYLIAEADESDASFLHLQPMVAIVTNIEADHMDTYQGDFENLKQTFINFLHNLPFYGRAVMCVDDPVIRELLPRVGRQTTTYGFSEDADVRVEDYQQIGPQGHFTLLRQDKEPMRVTLNAPGRHNALNAAAAVAVATEEGIDDEAILRAAESFQGTGRRFDFLGEFPLEPVNGKSGTAMLVDDYGHHPTEVDATIKAARAGWPDKNLVMLFQPHRFTRTRDLYDDFANVLTQVDTLLMLEVYPAGEAPIPGADSRSLCRTIRGRGKIDPILVPDPARVAEMLAPVLTGNDLILVQGAGNIGKIARSLAEIKLKPQTPEEEQHD
B11: asd L139Q (protein)
chain: MKNVGFIGWRGMVGSVLMQRMVEERDFDAIRPVFFSTSQLGQAAPSFGGTTGTLQDAFDLEALKALDIIVTCQGGDYTNEIYPKLRESGWQGYWIDAASSLRMKDDAIIILDPVNQDVITDGLNNGIRTFVGGNCTVSQMLMSLGGLFANDLVDWVSVATYQAASGGGARHMRELLTQMGHLYGHVADELATPSSAILDIERKVTTLTRSGELPVDNFGVPLAGSLIPWIDKQLDNGQSREEWKGQAETNKILNTSSVIPVDGLCVRVGALRCHSQAFTIKLKKDVSIPTVEELLAAHNPWAKVVPNDREITMRELTPAAVTGTLTTPVGRLRKLNMGPEFLSAFTVGDQLLWGAAEPLRRMLRQLA
B12: asd L141A (protein)
chain: MKNVGFIGWRGMVGSVLMQRMVEERDFDAIRPVFFSTSQLGQAAPSFGGTTGTLQDAFDLEALKALDIIVTCQGGDYTNEIYPKLRESGWQGYWIDAASSLRMKDDAIIILDPVNQDVITDGLNNGIRTFVGGNCTVSLMAMSLGGLFANDLVDWVSVATYQAASGGGARHMRELLTQMGHLYGHVADELATPSSAILDIERKVTTLTRSGELPVDNFGVPLAGSLIPWIDKQLDNGQSREEWKGQAETNKILNTSSVIPVDGLCVRVGALRCHSQAFTIKLKKDVSIPTVEELLAAHNPWAKVVPNDREITMRELTPAAVTGTLTTPVGRLRKLNMGPEFLSAFTVGDQLLWGAAEPLRRMLRQLA
B13: asd L141Q (protein)
chain: MKNVGFIGWRGMVGSVLMQRMVEERDFDAIRPVFFSTSQLGQAAPSFGGTTGTLQDAFDLEALKALDIIVTCQGGDYTNEIYPKLRESGWQGYWIDAASSLRMKDDAIIILDPVNQDVITDGLNNGIRTFVGGNCTVSLMQMSLGGLFANDLVDWVSVATYQAASGGGARHMRELLTQMGHLYGHVADELATPSSAILDIERKVTTLTRSGELPVDNFGVPLAGSLIPWIDKQLDNGQSREEWKGQAETNKILNTSSVIPVDGLCVRVGALRCHSQAFTIKLKKDVSIPTVEELLAAHNPWAKVVPNDREITMRELTPAAVTGTLTTPVGRLRKLNMGPEFLSAFTVGDQLLWGAAEPLRRMLRQLA

molecular target: Escherichia coli (laboratory strain); experiment: barcode share on antibiotic plates over drug-free plates; higher = less susceptible; settings: antibiotic: carbenicillin; 2× MIC (3.1 µg/mL)
Protocol: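 A pool of E. coli strains, each edited to carry one amino-acid change in an essential protein, was grown for 48 h on minimal glucose agar with or without antibiotic; strain barcodes were sequenced; mean of two replicates.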

Row | Protein | fold change of barcode share
1 | B1 | 0.227 ± 0.052
2 | B2 | 0.39 ± 0.084
3 | B3 | 0.101 ± 0.073
4 | B4 | 0.335 ± 0.29
5 | B5 | 0.37 ± 0.17
6 | B6 | 0.32 ± 0.076
7 | B7 | 0.189 ± 0.14
8 | B8 | 0.167 ± 0.048
9 | B9 | 0.363 ± 0.17
10 | B10 | 0.2767 ± 0.0027
11 | B11 | 0.307 ± 0.087
12 | B12 | 0.354 ± 0.011
13 | B13 | 0.407 ± 0.21

same assay, conditions: antibiotic: gentamicin; 2× MIC (MIC 0.45 µg/mL)

Row | Protein | fold change of barcode share
14 | B1 | 0.0285 ± 0.022
15 | B2 | < 0.00345
16 | B3 | < 0.0092
17 | B5 | < 0.0149
18 | B7 | < 0.0149
19 | B8 | < 0.0145
20 | B9 | < 0.00958
21 | B10 | 0.00863 ± 0.0054
22 | B11 | < 0.00638
23 | B12 | 0.0128 ± 0.011
24 | B13 | < 0.00864
